Assay results from the supplement of paper PMC4967469.

Tests used:
Experiment in all cases: Viability of human cancer cell lines after 72 h of drug (GDSC screen)
Tipifarnib = compound: Cn1cncc1[C@@](N)(c1ccc(Cl)cc1)c1ccc2c(c1)c(-c1cccc(Cl)c1)cc(=O)n2C [Tipifarnib]; details: top dose 16 µM; top dose inferred
Method: (§1)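 Human cancer cell lines in 384-well plates, medium with 10% serum, drug for 72 h over a 256-fold dose range (nine 2-fold or five 4-fold steps up to the top dose). Adherent lines were fixed and stained with the nucleic acid dye Syto60, suspension lines read with resazurin; signal relative to control wells, capped at 0 and 100%. One two-parameter sigmoid per drug and line, fitted in a mixed model over all curves with the slope shared within a line.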

PFI-1 = compound: COc1ccccc1S(=O)(=O)Nc1ccc2c(c1)CN(C)C(=O)N2 [PFI-1]; details: top dose 10 µM; top dose inferred
Method: as §1

GSK-1904529A = compound: CCc1cc(Nc2nccc(-c3c(-c4ccc(OC)c(C(=O)Nc5c(F)cccc5F)c4)nc4ccccn34)n2)c(OC)cc1N1CCC(N2CCN(S(C)(=O)=O)CC2)CC1 [GSK-1904529A]; details: top dose 1.024 µM; top dose inferred
Method: as §1

NG-25 = compound: CCN1CCN(Cc2ccc(NC(=O)c3ccc(C)c(Oc4ccnc5[nH]ccc45)c3)cc2C(F)(F)F)CC1 [NG-25]; details: top dose 10.24 µM; top dose inferred
Method: as §1

EKB-569 = compound: CCOc1cc2ncc(C#N)c(Nc3ccc(F)c(Cl)c3)c2cc1NC(=O)/C=C/CN(C)C [EKB-569]; details: top dose inferred
Method: as §1

Row | Cell Line | AUC (EKB-569) | IC50 (EKB-569) | also measured
1 | H290 (mesothelioma, adherent) |  |  | AUC (Tipifarnib): 0.872; IC50 (Tipifarnib): 13100 nM; AUC (PFI-1): 0.825; IC50 (PFI-1): 5330 nM; AUC (GSK-1904529A): 0.987; IC50 (GSK-1904529A): > 1020 nM
2 | HuH-7 (liver, adherent) |  |  | AUC (Tipifarnib): 0.767; IC50 (Tipifarnib): 5940 nM; AUC (PFI-1): 0.925; IC50 (PFI-1): > 10000 nM; AUC (GSK-1904529A): 0.965; IC50 (GSK-1904529A): > 1020 nM
3 | PA-1 (ovary, adherent) |  |  | AUC (NG-25): 0.847; IC50 (NG-25): 5210 nM; AUC (Tipifarnib): 0.525; IC50 (Tipifarnib): 1150 nM; AUC (GSK-1904529A): 0.991; IC50 (GSK-1904529A): > 1020 nM
4 | 201T (lung adenocarcinoma, adherent) |  |  | AUC (NG-25): 0.898; IC50 (NG-25): > 10200 nM; AUC (Tipifarnib): 0.628; IC50 (Tipifarnib): 2470 nM; AUC (GSK-1904529A): 0.93; IC50 (GSK-1904529A): > 1020 nM
5 | NCI-H2052 (mesothelioma, adherent) |  |  | AUC (NG-25): 0.936; IC50 (NG-25): > 10200 nM; AUC (Tipifarnib): 0.851; IC50 (Tipifarnib): > 16000 nM; AUC (GSK-1904529A): 0.983; IC50 (GSK-1904529A): > 1020 nM
6 | Caov-3 (ovary, adherent) |  |  | AUC (NG-25): 0.903; IC50 (NG-25): > 10200 nM; AUC (Tipifarnib): 0.955; IC50 (Tipifarnib): > 16000 nM; AUC (GSK-1904529A): 0.991; IC50 (GSK-1904529A): > 1020 nM
7 | BICR31 (head and neck, adherent) |  |  | AUC (NG-25): 0.98; IC50 (NG-25): > 10200 nM; AUC (Tipifarnib): 0.605; IC50 (Tipifarnib): 1950 nM; AUC (GSK-1904529A): 0.983; IC50 (GSK-1904529A): > 1020 nM
8 | C-4-I (cervix, adherent) |  |  | AUC (NG-25): 0.971; IC50 (NG-25): > 10200 nM; AUC (Tipifarnib): 0.81; IC50 (Tipifarnib): 9300 nM; AUC (GSK-1904529A): 0.971; IC50 (GSK-1904529A): > 1020 nM
9 | A375 (melanoma, adherent) |  |  | AUC (Tipifarnib): 0.435; IC50 (Tipifarnib): 688 nM; AUC (PFI-1): 0.833; IC50 (PFI-1): 4920 nM
10 | JHU-029 (head and neck, adherent) |  |  | AUC (Tipifarnib): 0.433; IC50 (Tipifarnib): 629 nM; AUC (PFI-1): 0.868; IC50 (PFI-1): > 10000 nM; AUC (GSK-1904529A): 0.948; IC50 (GSK-1904529A): > 1020 nM
11 | BxPC-3 (pancreas, adherent) |  |  | AUC (NG-25): 0.857; IC50 (NG-25): 10000 nM; AUC (Tipifarnib): 0.645; IC50 (Tipifarnib): 2660 nM; AUC (PFI-1): 0.796; IC50 (PFI-1): 5350 nM
12 | SW1573 (lung adenocarcinoma, adherent) |  |  | AUC (NG-25): 0.979; IC50 (NG-25): > 10200 nM; AUC (PFI-1): 0.881; IC50 (PFI-1): > 10000 nM; AUC (GSK-1904529A): 0.98; IC50 (GSK-1904529A): > 1020 nM
13 | NCI-H358 (lung adenocarcinoma, adherent) |  |  | AUC (Tipifarnib): 0.743; IC50 (Tipifarnib): 5430 nM; AUC (PFI-1): 0.947; IC50 (PFI-1): > 10000 nM; AUC (GSK-1904529A): 0.98; IC50 (GSK-1904529A): > 1020 nM
14 | STS-0421 (soft tissue, adherent) |  |  | AUC (Tipifarnib): 0.758; IC50 (Tipifarnib): 6400 nM; AUC (PFI-1): 0.81; IC50 (PFI-1): 6360 nM; AUC (GSK-1904529A): 0.963; IC50 (GSK-1904529A): > 1020 nM
15 | G-MEL (melanoma, adherent) |  |  | AUC (NG-25): 0.853; IC50 (NG-25): 7870 nM; AUC (PFI-1): 0.726; IC50 (PFI-1): 2710 nM; AUC (GSK-1904529A): 0.981; IC50 (GSK-1904529A): > 1020 nM
16 | KP-1N (pancreas, adherent) |  |  | AUC (Tipifarnib): 0.567; IC50 (Tipifarnib): 1540 nM; AUC (PFI-1): 0.897; IC50 (PFI-1): > 10000 nM; AUC (GSK-1904529A): 0.948; IC50 (GSK-1904529A): > 1020 nM
17 | SCC90 (head and neck, adherent) |  |  | AUC (Tipifarnib): 0.692; IC50 (Tipifarnib): 4390 nM; AUC (PFI-1): 0.921; IC50 (PFI-1): > 10000 nM; AUC (GSK-1904529A): 0.946; IC50 (GSK-1904529A): > 1020 nM
18 | NOS-1 (osteosarcoma, adherent, top dose 2.5 µM) | 0.285 | 32.9 nM | 
19 | SU-DHL-16 (B-cell lymphoma, suspension, top dose 2.5 µM) | 0.483 | 142 nM | 
20 | CW-2 (large intestine, adherent, top dose 20 µM) | 0.706 | 4990 nM | 
21 | T-24 (bladder, adherent, top dose 2.5 µM) | 0.91 | > 2500 nM | 
22 | NB13 (neuroblastoma, adherent, top dose 2.5 µM) | 0.98 | > 2500 nM | 
23 | MEL-JUSO (melanoma, adherent, top dose 2.5 µM) | 0.895 | > 2500 nM | 
24 | MES-SA (uterus, adherent, top dose 2.5 µM) | 0.961 | > 2500 nM | 
25 | NCI-H847 (small cell lung carcinoma, adherent, top dose 2.5 µM) | 0.719 | 565 nM | 

Row | Cell Line | AUC (EKB-569) | IC50 (EKB-569) | also measured
26 | OACp4C (oesophagus, adherent, top dose 2.5 µM) | 0.583 | 276 nM | 
27 | CAL-78 (chondrosarcoma, adherent, top dose 2.5 µM) | 0.986 | > 2500 nM | 
28 | EJM (lymphoid neoplasm, semi-adherent, top dose 2.5 µM) | 0.923 | > 2500 nM | 
29 | GMS-10 (glioma, adherent, top dose 2.5 µM) | 0.988 | > 2500 nM | 
30 | SNU-C5 (large intestine, adherent, top dose 2.5 µM) | 0.974 | > 2500 nM | 
31 | HTC-C3 (thyroid, adherent, top dose 2.5 µM) | 0.739 | 830 nM | 
32 | SCC-25 (head and neck, adherent, top dose 2.5 µM) | 0.669 | 493 nM | 
33 | H2818 (mesothelioma, adherent, top dose 2.5 µM) | 0.986 | > 2500 nM | 
34 | KMRC-20 (kidney, adherent, top dose 2.5 µM) | 0.982 | > 2500 nM | 
35 | NCI-H82 (small cell lung carcinoma, suspension, top dose 2.5 µM) | 0.99 | > 2500 nM | 
36 | SK-CO-1 (large intestine, adherent, top dose 2.5 µM) | 0.986 | > 2500 nM | 
37 | T84 (large intestine, adherent, top dose 2.5 µM) | 0.905 | > 2500 nM | 
38 | EW-16 (Ewing sarcoma, adherent, top dose 2.5 µM) | 0.868 | 2460 nM | 
39 | C-33-A (cervix, adherent, top dose 2.5 µM) | 0.8 | 1220 nM | 
40 | SNU-61 (large intestine, adherent, top dose 2.5 µM) | 0.757 | 1120 nM | 
41 | JJN-3 (haematopoietic neoplasm, suspension, top dose 2.5 µM) | 0.951 | > 2500 nM | 
42 | COLO-320-HSR (large intestine, suspension, top dose 2.5 µM) | 0.982 | > 2500 nM | 
43 | ES5 (Ewing sarcoma, adherent, top dose 2.5 µM) | 0.848 | 2300 nM | 
44 | MDA-MB-175-VII (breast, adherent, top dose 2.5 µM) | 0.202 | 18.3 nM | 
45 | HGC-27 (stomach, adherent, top dose 2.5 µM) | 0.973 | > 2500 nM | 
46 | SUP-M2 (anaplastic large cell lymphoma, suspension, top dose 2.5 µM) | 0.73 | 580 nM | 
47 | KMH-2 (thyroid, adherent, top dose 2.5 µM) | 0.927 | > 2500 nM | 
48 | BPH-1 (prostate, adherent, top dose 2.5 µM) | 0.208 | 19.2 nM | 
49 | MONO-MAC-6 (acute myeloid leukaemia, suspension, top dose 2.5 µM) | 0.817 | 1510 nM | 
50 | SUP-B15 (lymphoblastic leukaemia, suspension, top dose 2.5 µM) | 0.834 | 1540 nM | 

Row | Cell Line | AUC (EKB-569) | IC50 (EKB-569) | also measured
51 | 5637 (bladder, adherent, top dose 2.5 µM) | 0.844 | 1540 nM | 
52 | MFH-ino (soft tissue, adherent, top dose 2.5 µM) | 0.969 | > 2500 nM | 
53 | NCI-H1694 (small cell lung carcinoma, suspension, top dose 2.5 µM) | 0.926 | > 2500 nM | 
54 | SF295 (glioma, adherent, top dose 2.5 µM) | 0.972 | > 2500 nM | 
55 | H2869 (mesothelioma, adherent, top dose 2.5 µM) | 0.883 | > 2500 nM | 
56 | A375 (melanoma, adherent, top dose 2.5 µM) | 0.991 | > 2500 nM | 
57 | SW1088 (glioma, adherent, top dose 2.5 µM) | 0.952 | > 2500 nM | 
58 | DMS-273 (small cell lung carcinoma, adherent, top dose 2.5 µM) | 0.959 | > 2500 nM | 
59 | SBC-3 (small cell lung carcinoma, adherent, top dose 2.5 µM) | 0.861 | 1810 nM | 
60 | VMRC-RCW (kidney, adherent, top dose 2.5 µM) | 0.956 | > 2500 nM | 
61 | SNU-C1 (large intestine, suspension, top dose 20 µM) | 0.944 | > 20000 nM | 
62 | NKM-1 (acute myeloid leukaemia, suspension, top dose 2.5 µM) | 0.698 | 572 nM | 
63 | UMC-11 (lung carcinoid, adherent, top dose 2.5 µM) | 0.971 | > 2500 nM | 
64 | ESO51 (oesophagus, semi-adherent, top dose 2.5 µM) | 0.968 | > 2500 nM | 
65 | RL (B-cell lymphoma, suspension, top dose 2.5 µM) | 0.93 | > 2500 nM | 
66 | KMS-12-BM (myeloma, suspension, top dose 2.5 µM) | 0.692 | 482 nM | 
67 | DEL (lymphoid neoplasm, suspension, top dose 2.5 µM) | 0.831 | 1150 nM | 
68 | CP66-MEL (melanoma, adherent, top dose 2.5 µM) | 0.971 | > 2500 nM | 
69 | GDM-1 (acute myeloid leukaemia, suspension, top dose 2.5 µM) | 0.458 | 120 nM | 
70 | HCC1500 (breast, adherent, top dose 2.5 µM) | 0.926 | > 2500 nM | 
71 | NCI-H2196 (small cell lung carcinoma, adherent, top dose 2.5 µM) | 0.972 | > 2500 nM | 
72 | COLO-824 (breast, adherent, top dose 2.5 µM) | 0.913 | > 2500 nM | 
73 | ARH-77 (myeloma, suspension, top dose 2.5 µM) | 0.79 | 1070 nM | 
74 | U031 (kidney, adherent, top dose 2.5 µM) | 0.903 | > 2500 nM | 

Lines with a small IC50 respond at low doses; a fit beyond the top or the lowest dose is shown as a bound at that dose. AUC, from the same fit, is the share of area under the viability curve across the 256-fold dose range; it is 1 without any effect and falls as sensitivity rises. A top dose marked as inferred is not printed in the source and was worked back from the curve model.
